In the BET-seq Pho4 binding data (Le et al. 2018):
The other results are listed elsewhere or left out. Values were computed here from the reads of four pooled replicates and scatter widely.

molecular target: T1, Pho4 (S. cerevisiae) (UniProt P07270); test: relative binding free energy (BET-seq); higher = weaker binding; conditions: reference: library average
T1 sequence: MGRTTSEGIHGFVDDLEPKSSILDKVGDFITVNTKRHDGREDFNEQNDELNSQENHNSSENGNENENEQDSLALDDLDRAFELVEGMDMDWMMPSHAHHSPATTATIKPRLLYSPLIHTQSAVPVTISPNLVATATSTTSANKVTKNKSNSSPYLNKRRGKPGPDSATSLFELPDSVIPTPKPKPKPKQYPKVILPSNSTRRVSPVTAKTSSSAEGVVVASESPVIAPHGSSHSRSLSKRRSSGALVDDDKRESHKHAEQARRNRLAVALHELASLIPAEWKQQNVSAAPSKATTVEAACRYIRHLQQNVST

Sequence | relative binding free energy [kcal/mol]
AGATTCACGTGATAGG | 0.33
TCAGTCACGTGCTGTT | 0.04
TGTCTCACGTGGTAAA | 0.13
GACGGCACGTGGTGGC | -0.03
TGGTTCACGTGGGTCA | 0.13
CTAGTCACGTGTTTTT | 0.15
GTTTGCACGTGGCGAG | -0.14
GCACGCACGTGGGTTG | -0.1
TTCTTCACGTGCTGGG | 0.41
TGAGCCACGTGGGGTC | -0.21
TCTAGCACGTGTAGTT | -0.01
TGTCACACGTGGTGAG | 0.13
AAATGCACGTGGTGGT | -0.2
GTTGTCACGTGCTGGC | 0.09
TAGTTCACGTGGATTA | 0.19
ATTCCCACGTGGTTGG | -0.02
ATGGACACGTGAAGGT | 0.26
AGTGGCACGTGTACTG | -0.04
TGAGTCACGTGGGGTG | -0.05
AGGTTCACGTGTAGGA | 0.27
TAAAACACGTGTTTGT | -0.15
ATATTCACGTGTTAGA | 0.2
TAGGACACGTGGGTCT | -0.2
TAAGGCACGTGGGTAG | -0.25
CTTAACACGTGTGTTG | -0.03

Sequence | relative binding free energy [kcal/mol]
CATATCACGTGGAGGG | 0.11
GGTATCACGTGGGCGC | 0
TATAGCACGTGTATAT | -0.19
AGGTACACGTGAGAGG | 0.25
AGGAGCACGTGGGAAG | -0.2
GTGAGCACGTGGTGAT | 0.02
TTGTGCACGTGAGCAG | 0.12
CGAGTCACGTGAGGAT | 0.28
TCGAACACGTGTGGGA | 0.11
CATTGCACGTGGGTGG | -0.15
GGGTGCACGTGCAGTG | 0.08
GTTGTCACGTGCCTGG | -0.06
GTGCTCACGTGATTGT | 0.35
CGAGGCACGTGTCGTT | -0.02
TATATCACGTGGGAGC | 0.1
GGGTGCACGTGAGCGT | 0.12
TATGTCACGTGGGCTT | 0.03
GGTGGCACGTGCTATG | -0.17
AAGGTCACGTGATTTT | 0.33
GTTGGCACGTGGTGTA | -0.06
ATGGGCACGTGGCAGT | -0.25
GGATTCACGTGAGCAG | 0.53
GTATGCACGTGATAAT | 0.1
GCGTGCACGTGGAGTT | 0.05
TGTTTCACGTGTAGTC | 0.32

Sequence | relative binding free energy [kcal/mol]
ATATTCACGTGAGGAG | 0.29
TGATACACGTGGCATG | -0.12
GGCGTCACGTGAAGTG | 0.26
GTAAACACGTGAAGTA | 0.37
ATTGTCACGTGTGGTT | 0.06
AGAAGCACGTGTTTGT | -0.16
GTTAGCACGTGAGTTC | 0.32
TAAGTCACGTGGCATT | -0.02
CGTAACACGTGTTAGG | -0.01
CGGATCACGTGTAAGT | 0.18
GGTTGCACGTGAGCGA | 0.15
GGGTTCACGTGAGGCC | 0.52
ATGTTCACGTGCAGTA | 0.24
ATTGGCACGTGTCCGG | -0.11
ATATGCACGTGTCTTA | -0.04
ATTAACACGTGGGGAC | 0.01
TGTCTCACGTGTAGTC | 0.23
GAAATCACGTGTTAGT | 0.21
ACTTTCACGTGGAGGT | 0.17
GGTTGCACGTGCGGCG | 0.09
GCGTGCACGTGAGGAT | 0.33
CGGGGCACGTGTCTAG | -0.16
TATTTCACGTGCGTCT | 0.25
CAAAGCACGTGTTTGT | -0.05
TTTAGCACGTGGGGTC | -0.16

Sequence | relative binding free energy [kcal/mol]
TGTATCACGTGCGGTA | 0.05
GTAGTCACGTGTATGC | 0.1
GCGAGCACGTGTAGGT | -0.02
TTTGACACGTGTCTTT | 0.01
GGTCTCACGTGTTCTT | 0.31
ATGAGCACGTGATAGT | 0.1
GTAAACACGTGATTGT | 0.09
TCAGACACGTGGTGGA | 0.09
TTGGCCACGTGGGGCT | -0.24
GGCCGCACGTGGGCAG | -0.13
AGGGGCACGTGGTAAC | -0.16
GAAGGCACGTGTTTGA | -0.16
GCAGGCACGTGTTAGG | -0.03
ATTGCCACGTGGGGTT | -0.19
GGTGTCACGTGTGTGG | 0.17
TTAATCACGTGCGTCA | 0.22
GTTTTCACGTGTTATC | 0.23
TAGGACACGTGTTGGT | 0
TAGTACACGTGAGGGT | 0.24
TGGCGCACGTGAAAGT | 0.1
TTGTTCACGTGGAAGC | 0.31
ATATGCACGTGGTCGC | -0.02
AAGATCACGTGTTGGT | 0.05
ATCTTCACGTGGATGG | 0.4
TGATGCACGTGTACTG | -0.01

Sequence | relative binding free energy [kcal/mol]
GGGTACACGTGGGGAG | 0.03
TGGTTCACGTGCGTCT | 0.23
TGGTTCACGTGAGATC | 0.4
TTGATCACGTGGAGTG | 0.09
TGTGGCACGTGGGGTT | -0.14
TTACACACGTGCTGGG | -0.02
AGGGCCACGTGGTGTT | -0.19
TGTTACACGTGCGGAA | 0.19
CGGTTCACGTGTATTA | 0.38
ATCCGCACGTGAGGGG | 0.21
AAGTTCACGTGCGTGG | 0.1
GGGGACACGTGACGTG | 0.19
GTTTTCACGTGGTCTC | 0.32
AAGCACACGTGGTTAG | 0.22
TTGCTCACGTGTGTTC | 0.34
TTGGCCACGTGTGTGT | -0.02
TTAGGCACGTGGCTAT | -0.31
TTCTGCACGTGGAGTG | 0.02
TGTTACACGTGGCAGA | 0.18
AATGTCACGTGCGGTT | -0.03
GCGGGCACGTGCTTGT | -0.18
ACAGTCACGTGGGGAG | -0.03
TCAGGCACGTGATTGG | 0.02
GCTTTCACGTGGAAGT | 0.41
TTTTGCACGTGCATGA | -0.04

Sequence | relative binding free energy [kcal/mol]
ATGAGCACGTGTAGGC | -0.06
CGTTACACGTGTGGGT | 0.14
CCAGACACGTGGTGGG | 0.05
ATGTTCACGTGATATC | 0.28
TACGGCACGTGGTATT | -0.15
GCATGCACGTGGGGTA | -0.11
ATTTGCACGTGGTTCA | -0.11
GTGCTCACGTGGGGAA | -0.04
TTGGCCACGTGGTGTC | -0.05
GTTAGCACGTGCTGTG | -0.05
TTTAACACGTGTCTGG | 0.02
TTGAGCACGTGGGCAT | -0.27
ATCTCCACGTGGTGTT | 0.06
GGCTTCACGTGTATTT | 0.34
GATGGCACGTGGTGAG | -0.01
TGGCACACGTGGGGTA | -0.17
TGGTTCACGTGGATTG | 0.33
TGGCGCACGTGATTGT | 0.02
TGGGTCACGTGCTTAG | -0.02
GGGGACACGTGGTGTA | -0.1
GCGTTCACGTGTAGGA | 0.3
